Data from PubChem BioAssay AID493035 (The Scripps Research Institute Molecular Screening Center, 2011).
Values joined by “and” are separate entries in the source; they are usually repeats but may differ in a detail not shown here. Equal entries are not always repeated. About 45 (2%) of roughly 2,000 compounds were called active.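 Rule for the calls: active = inhibition above the mean of all tested compounds plus 3 SD (cut at about 49% in these data); inactive = the rest.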 The list shows a part of the results. Where a SMILES comes first, the peptide text is derived from it. The star is where a group is joined. Boc = CC(C)(C)OC(=O)*; OBn = c1ccc(CO*)cc1

Target: Perilipin-5 (Homo sapiens) + 1-acylglycerol-3-phosphate O-acyltransferase ABHD5 (Homo sapiens) (UniProt Q00G26+Q8WTS1)
Experiment: ABHD5-PLIN5 interaction inhibitors, pilot screen, cell lysate, split luciferase complementation, luminescence, NIH validation set (AID 493035);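 note: 0% = DMSO only wells while the 100% control is not stated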
Conditions: split G. princeps luciferase complementation, lysates, 4 h; at 7.9 µM, stronger effect = higher value

UniProt Q00G26, sequence (Q00G26 whole entry, looked up): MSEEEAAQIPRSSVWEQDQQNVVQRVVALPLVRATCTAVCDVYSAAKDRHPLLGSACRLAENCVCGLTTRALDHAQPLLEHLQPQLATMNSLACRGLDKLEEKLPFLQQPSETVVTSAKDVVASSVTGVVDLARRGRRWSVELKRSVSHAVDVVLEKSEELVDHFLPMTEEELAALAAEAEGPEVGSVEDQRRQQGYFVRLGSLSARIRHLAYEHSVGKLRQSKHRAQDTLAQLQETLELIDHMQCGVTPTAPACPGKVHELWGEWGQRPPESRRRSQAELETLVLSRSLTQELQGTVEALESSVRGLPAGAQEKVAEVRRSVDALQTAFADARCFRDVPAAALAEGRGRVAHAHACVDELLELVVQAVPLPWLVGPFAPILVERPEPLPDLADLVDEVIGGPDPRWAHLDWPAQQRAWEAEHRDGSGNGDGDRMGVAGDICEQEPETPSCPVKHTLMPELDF
UniProt Q00G26, sequence (Q8WTS1 whole entry, looked up): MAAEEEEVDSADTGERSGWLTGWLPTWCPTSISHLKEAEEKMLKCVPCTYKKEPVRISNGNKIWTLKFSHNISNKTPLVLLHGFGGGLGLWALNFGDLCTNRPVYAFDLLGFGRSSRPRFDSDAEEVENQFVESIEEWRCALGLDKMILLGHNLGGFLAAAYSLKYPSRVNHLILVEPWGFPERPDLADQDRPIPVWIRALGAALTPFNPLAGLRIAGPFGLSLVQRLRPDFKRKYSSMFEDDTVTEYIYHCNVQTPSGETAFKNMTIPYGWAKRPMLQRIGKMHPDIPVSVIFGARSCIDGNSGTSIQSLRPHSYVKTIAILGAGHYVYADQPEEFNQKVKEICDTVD

SMILES	inhibition
COc1ccc(CCNC(=O)C(=O)Nc2ccc3c(c2)OCO3)cc1OC	inactive: -7.87%
CNC[C@H](O)c1cccc(O)c1	inactive: 7.25%
COc1ccc2[nH]c(CN3CCN(CC(C)C)C(CCO)C3)c(C)c2c1 (configuration not stated)	inactive: -11.5%
Cn1c2ccccc2c2cc(/C=C(\NC(=O)c3ccccc3)C(=O)O)ccc21	inactive: -7.5%
O=C(O)CCn1c(=S)n(CCC(=O)O)c2ccccc21	inactive: 8.91%
CC1(CC(=O)Nc2ccccc2)NC(=S)N(c2ccccc2)N1 (configuration not stated)	inactive: 1.46%
CCOC(=O)Nc1ccc2c(c1)N(C(=O)CCN1CCOCC1)c1ccccc1S2	inactive: 0.93%
CCOC(=O)c1cnc2ccccc2c1NCCO	inactive: -3.57%
CN=C(NC#N)NCCSCc1nc[nH]c1C	inactive: -10.8%
CCC(C)NCCOCCOc1ccc(Cl)c2ccccc12 (configuration not stated)	inactive: -12.6%
COc1ccc(-c2csc(-c3cccnc3)n2)cc1C	inactive: -0.19%
COc1ccc(C2(CCN=Cc3ccc(N(C)C)cc3)CCOC(C)(C)C2)cc1 (configuration not stated)	inactive: -10.9%
COc1ccc(Br)cc1C(=O)Nc1ccc(C(=O)O)cc1	inactive: 0.9%
COc1cc([C@@H]2c3cc4c(cc3[C@H](O)[C@H]3COC(=O)[C@H]23)OCO4)cc(OC)c1OC	inactive: -2.88%
CC(C)CC(NC(=O)C(NC(=O)OC(C)(C)C)C(C)C)C(=O)NC(CCC(=O)OCc1ccccc1)C(N)=O (stereo not drawn) (Boc-Val-Leu-Glu(OBn)-NH2; configuration not given here)	inactive: -6.05%
COc1ccc(C(=O)Nc2ccccc2C(=O)NCCCn2ccnc2)cc1	inactive: -6.29%
O=C(CC1SC(=O)NC1=O)Nc1ccc(Cl)cc1 (configuration not stated)	inactive: -6.54%
COC(=O)c1ccccc1NC(=O)NCc1ccccc1	inactive: -4.99%
O=C(NCCc1ccccc1)C1CCN(C2CCN(Cc3ccco3)CC2)CC1	inactive: 4.49%
c1ccc2c(c1)CCCC2C1=NCCN1 (configuration not stated)	inactive: -0.4%
CCCCN1C[C@H](O)[C@@H](O)[C@H](O)[C@H]1CO	inactive: -11.3%
C[C@]12CC[C@@H]3c4ccc(O)cc4[C@@H](O)C[C@H]3[C@@H]1CC[C@@H]2O	inactive: 3.05%
CCC(C)NCCOc1ccc(C(C)(C)c2ccccc2)cc1 (configuration not stated)	inactive: -20.1%
Nc1ccc(S(=O)(=O)NC(=O)c2ccccc2)cc1	inactive: -1.95%
C[N+](C)(C)CCOP(=O)(O)OP(=O)([O-])OC[C@H]1O[C@@H](n2ccc(N)nc2=O)[C@H](O)[C@@H]1O	inactive: 6.72%

SMILES	inhibition
Clc1ccc(CCNc2ncnc3nc[nH]c23)cc1	inactive: -0.06%
CCOC(=O)c1cc2cc3ccccc3cc2[nH]1	inactive: 3.97%
CC(C)(CO)CNC(=O)CC1C(=O)NCCN1CC(c1ccccc1)c1ccccc1 (configuration not stated)	inactive: 2.61%
COc1ccc(CNC(=O)C2CCN(C(=O)[C@@H](CC(C)C)NC(=O)OC(C)(C)C)CC2)cc1	inactive: -5.28%
COc1ccc(CN(CCC(c2ccc(F)cc2)C2CCOC(C)(C)C2)C(=O)c2ccco2)cc1 (configuration not stated)	inactive: 33.5%
CCOc1ccc(C(=O)C(C)=O)c(OCC)c1	inactive: 3.44%
COc1ccc(CCCC(=O)O)c(C)c1	inactive: -3.24%
COCC1CCCN(Cc2cn[nH]c2-c2cc3ccccc3o2)C1 (configuration not stated)	inactive: -4.29%
CCOc1cc(C=O)ccc1OCCSc1ccc(C)cc1	inactive: -8.71%
O=C1OC(c2ccc(O)cc2)(c2ccc(O)cc2)c2ccccc21	inactive: 6.4%
C/C=C/Cn1c(SC)nc2c1c(=O)[nH]c(=O)n2C	inactive: -3.19%
CC(C)C(=O)Nc1cccnc1	inactive: 0.81%
COc1ccc(C=NCC2COc3ccccc3O2)cc1OC (configuration not stated)	inactive: 11.6%
CN(C)c1ccc(O)c2c1CC1CC3[C@@H](N(C)C)C(=O)C(C(N)=O)=C(O)[C@]3(O)C(=O)C1=C2O (some centres not stated)	inactive: 3.04%
O=C(O)C1Cc2ccccc2CN1S(=O)(=O)c1ccccc1 (configuration not stated)	inactive: 3.15%
CC(=O)OCC(=O)[C@H]1CC[C@H]2[C@@H]3CC=C4C[C@@H](O)CC[C@]4(C)[C@H]3CC[C@]12C	inactive: -6.44%
O=C(NC1CCCCC1)N1CCc2[nH]c3ccccc3c2C1	inactive: 3.3%
CCOC(=O)C(=O)N1CCN(c2ccccc2OC)CC1	inactive: -5.55%
CC(C)(Oc1ccc(CCNC(=O)c2ccc(Cl)cc2)cc1)C(=O)O	inactive: -2.51%
OCCN1CCN(CCCN2c3ccccc3Sc3ccc(C(F)(F)F)cc32)CC1	inactive: 0.19%
c1ccc(CC2=NCCN2)cc1	inactive: 0.09%
O=C(Nc1ccc(C(=O)NC2CCCCC2)cc1)c1cccnc1	inactive: -10.4%
CCc1cc(=O)oc2cc(OCC=C(C)C)ccc12	inactive: -4.44%
Clc1ccc2c(c1)C(N1CCNCC1)=Nc1ccccc1O2	inactive: -6.4%
O=C1c2ccccc2C(=O)C1c1ccccc1	inactive: -2.73%

SMILES	inhibition
O=Cc1ccc(OC(=O)c2cccnc2)cc1	inactive: 2.3%
Cc1ccc(N(CC2=NCCN2)c2cccc(O)c2)cc1	inactive: -7.62% and inactive: -6.05% and inactive: -5.69%
COc1ccccc1C1(CC(=O)N2CCCCC2)CCOC(C(C)C)C1 (configuration not stated)	inactive: -11.5%
O=C(CN1CCN(Cc2ccccc2)CC1)N1CCCc2c1c(=O)oc1ccc(O)cc21	inactive: 3.84%
N#Cc1cc2c([nH]c1=O)CCCC2	inactive: -4.72%
COc1ccc(N2CCN(C(=S)NCc3ccccc3)CC2)cc1	inactive: 10.2%
Cn1c(=O)[nH]c(=O)c2c1ncn2CCN1CCOCC1	inactive: -6.17%
O=C(NCCO)c1ccc(Cl)c(Cl)c1	inactive: -9.12%
CC1CCN(C(=O)Oc2ccccc2)CC1	inactive: 2.98%
COCCCC/C(=N\OCCN)c1ccc(C(F)(F)F)cc1	inactive: -0.71%
C[C@]12CCC(=O)C=C1CC[C@@H]1[C@@H]2C(=O)C[C@@]2(C)[C@H]1CC[C@]2(O)C(=O)CO	inactive: -5.02%
O=C(O)CCSc1nc2ccccc2s1	inactive: 6.88%
CC(C)(C)C(=O)Nc1cccc(OC(F)(F)C(F)Cl)c1 (configuration not stated)	inactive: -10.7%
CSCC[C@H](NC(=O)Nc1ccc(C)cc1C)C(=O)O	inactive: -1.66%
O=C(CN1C(=O)/C(=C/c2cccc(Br)c2)SC1=S)Nc1cccnc1	active: 52%
CC(C)=CC/C=C1\CCC(C(=O)O)C(C(=O)O)C1 (configuration not stated)	inactive: 1.14%
NC(=O)c1ccccc1O	inactive: 3.65%
N/C(=N\OS(=O)(=O)c1ccc2ccccc2c1)c1cccnc1	inactive: 1.91%
Cc1ccc2[nH]c(=O)c(Cc3ccccc3)c(O)c2c1	inactive: -14.1%
CCOC(=O)N1CCC(=C2c3ccc(Cl)cc3CCc3cccnc32)CC1	inactive: 17.8%
O=C1N=c2ccccc2=C1c1[nH]c(=S)[nH]c1O	inactive: -4.74%
O=C1C(O)CC2c3ccccc3CC3(CCCC3)N12 (configuration not stated)	inactive: 1.52%
COc1ccccc1N1C(=O)C2CC(C)=C(C)CC2C1=O (configuration not stated)	inactive: -0.16%
CCCCCCCCCC(=O)OCC(O)CO (configuration not stated)	inactive: 0.57%
CN1CCN(C2=Nc3ccccc3Oc3ccc(Cl)cc32)CC1	inactive: -17.4%

SMILES	inhibition
Cc1cccc(N2C(=O)C3C(c4ccccc4)OC4(C(=O)c5ccccc5C4=O)C3C2=O)c1 (configuration not stated)	inactive: 2.12%
O=C(O)Cc1ccc(-c2ccccc2)cc1	inactive: 3.16%
CCOC(=O)C1=C2c3ccc4ccccc4c3CC(C)(C)N2C(=O)C1=O	inactive: 8.2%
C[C@@H]1C[C@H]2[C@@H]3C[C@H](F)C4=CC(=O)C=C[C@]4(C)[C@@]3(F)[C@@H](O)C[C@]2(C)[C@@]1(O)C(=O)CO	inactive: -5.31%
O=C(/C=C/c1ccc(F)cc1)N1CC[C@@]2(O)CCCC[C@H]2C1	inactive: -2.04%
COc1c(O)ccc2c1CN1CCc3cc4c(cc3C1C2)OCO4 (configuration not stated)	inactive: 15.5%
CCNC1=C(Cl)C(=O)c2ccccc2C1=O	inactive: -3.74%
COC(=O)C1=C(C)NC(C)=C([N+](=O)[O-])C1c1ccccc1C(F)(F)F (configuration not stated)	inactive: -2.75%
Nc1ccc(-c2nc3ncccc3o2)c(Cl)c1	inactive: -10.8%
O=C1C2CC=C(Cl)CC2C(=O)N1CCc1c[nH]c2ccccc12 (configuration not stated)	inactive: -10.1%
CCOc1ccccc1Oc1coc2cc(OCC(=O)O)ccc2c1=O	inactive: -5.58%
CCn1cc(CN2N=C(C)CC2c2ccccc2)c(C)n1 (configuration not stated)	inactive: 2.34%
CC[N+](C)(CC)CCOC(=O)C(O)(c1ccccc1)C1CCCCC1 (configuration not stated)	inactive: -6.34%
C/C=C/c1ccc(OCCCCN2CC(C)CC(C)C2)c(OC)c1 (configuration not stated)	inactive: -7.28%
O=C(Cc1ccc(Br)cc1)c1ccc(O)cc1O	inactive: 12.4%
COc1cc(/C=C/C(=O)O)cc(S(=O)(=O)NCCCO)c1OC	inactive: -2.54%
COc1ccc2[nH]c(=O)c3c(c2c1)OC(C)(C)C=C3	inactive: -3.54%
O=C(NC(=S)Nc1ccc(N2CCN(C(=O)c3ccccc3)CC2)cc1)c1cccs1	inactive: 11.4%
CN(C)c1ccc(C(CN)c2c[nH]c3ccccc23)cc1 (configuration not stated)	inactive: 22.8%
Cc1ccc(-c2nnc(-c3ccc4c(c3)OCO4)o2)cc1	inactive: -9.18%
COc1ccc(OC)c(-c2oc3ccccc3c(=O)c2O)c1	inactive: -12.5%
Cc1nc2ccccc2c(=O)n1N	inactive: -8.57%
